# Source: patent US20250270339A1 (Alector, published 2025)
# B1: TfR9.1B.35 2+1 anti-TfR bispecific antibody (bispecific antibody, human IgG1, kappa)
# heavy 1: EVRLLESGGGLVQPGGSLRLSCAASGFTFSNYAMGWVRQAPGKGLEWVSAISGSGGSTYYADSVKGRFTTSRDDSKNALYLQMNSLRAEDTAVYYCARGGPGWYAADVWGQGTTVTVSSASTKGPSVFPLAPSSKSTSGGTAALGCLVKDYFPEPVTVSWNSGALTSGVHTFPAVLQSSGLYSLSSVVTVPSSSLGTQTYICNVNHKPSNTKVDKKV[here human IgG1 Fc with changes without letters]GGGGSGGGGSGGGGSQVQLVQSGAEVKKPGASVKVSCKASGYTFTEYAMHWVRQAPGQGLEWMGGINPNDGGTSYNQKFKGRVTMTVDTSTSTAYMELSSLRSEDTAVYYCASQGWLLRGGDYWGQGTLVTVSSGGSEGKSSGSGSESKSTGGSDVVMTQSPLSLPVTLGQPASISCKSSQSLLDSDGKTYLNWLQQRPGQSPRRLIYLVSKLDSGVPDRFSGSGSGTDFTLKISRVEAEDVGVYHCWQGTHFPQSFGGGTKVEIK
# heavy 2: EVRLLESGGGLVQPGGSLRLSCAASGFTFSNYAMGWVRQAPGKGLEWVSAISGSGGSTYYADSVKGRFTTSRDDSKNALYLQMNSLRAEDTAVYYCARGGPGWYAADVWGQGTTVTVSS[here human IgG1 constant region with changes without letters]
# light: DIQMTQSPSSLSASVGDRVTITCRASQSISSYLNWYQQKPGKAPKLLIYAASSLQSGVPSRFSGSGSGTDFTLTISSLQPEDFATYYCQQADLPAFAFGGGTKVEIKRTVAAPSVFIFPPSDEQLKSGTASVVCLLNNFYPREAKVQWKVDNALQSGNSQESVTEQDSKDSTYSLSSTLTLSKADYEKHKVYACEVTHQGLSSPVTKSFNRGEC
# notes: 2+1
# B2: TfR9.1B.38 2+1 anti-TfR bispecific antibody (bispecific antibody, human IgG1, kappa)
# heavy 1: EVRLLESGGGLVQPGGSLRLSCAASGFTFSNYAMGWVRQAPGKGLEWVSAISGSGGSTYYADSVKGRFTTSRDDSKNALYLQMNSLRAEDTAVYYCARGGPGWYAADVWGQGTTVTVSSASTKGPSVFPLAPSSKSTSGGTAALGCLVKDYFPEPVTVSWNSGALTSGVHTFPAVLQSSGLYSLSSVVTVPSSSLGTQTYICNVNHKPSNTKVDKKV[here human IgG1 Fc with changes without letters]GGGGSGGGGSGGGGSQVQLVQSGAEVKKPGASVKVSCKASGYTFTEYAMHWVRQAPGQGLEWMGGINPNDGGTSYAQKFKGRVTMTVDTSTSTAYMELSSLRSEDTAVYYCASQRWLNRGGDYWGQGTLVTVSSGGSEGKSSGSGSESKSTGGSDVVMTQSPLSLPVTLGQPASISCKSSQSLLDSDGKTYLNWLQQRPGQSPRRLIYLVSKLDSGVPDRFSGSGSGTDFTLKISRVEAEDVGVYYCWQGTHFPQTFGGGTKVEIK
# heavy 2: EVRLLESGGGLVQPGGSLRLSCAASGFTFSNYAMGWVRQAPGKGLEWVSAISGSGGSTYYADSVKGRFTTSRDDSKNALYLQMNSLRAEDTAVYYCARGGPGWYAADVWGQGTTVTVSS[here human IgG1 constant region with changes without letters]
# light: B1 light
# notes: 2+1
# B3: TfR9.1B.40 2+1 anti-TfR bispecific antibody (bispecific antibody, human IgG1, kappa)
# heavy 1: EVRLLESGGGLVQPGGSLRLSCAASGFTFSNYAMGWVRQAPGKGLEWVSAISGSGGSTYYADSVKGRFTTSRDDSKNALYLQMNSLRAEDTAVYYCARGGPGWYAADVWGQGTTVTVSSASTKGPSVFPLAPSSKSTSGGTAALGCLVKDYFPEPVTVSWNSGALTSGVHTFPAVLQSSGLYSLSSVVTVPSSSLGTQTYICNVNHKPSNTKVDKKV[here human IgG1 Fc with changes without letters]GGGGSGGGGSGGGGSQVQLVQSGAEVKKPGASVKVSCKASGYTFTEYAMHWVRQAPGQGLEWMGGINPNDGGTSYNQKFKGRVTMTVDTSTSTAYMELSSLRSEDTAVYYCASQRWLDRGGDYWGQGTLVTVSSGGSEGKSSGSGSESKSTGGSDVVMTQSPLSLPVTLGQPASISCKSSQSLLDSDGKTYLNWLQQRPGQSPRRLIYLVSKLDSGVPDRFSGSGSGTDFTLKISRVEAEDVGVYYCWQGTQFPQTFGGGTKVEIK
# heavy 2: EVRLLESGGGLVQPGGSLRLSCAASGFTFSNYAMGWVRQAPGKGLEWVSAISGSGGSTYYADSVKGRFTTSRDDSKNALYLQMNSLRAEDTAVYYCARGGPGWYAADVWGQGTTVTVSS[here human IgG1 constant region with changes without letters]
# light: B1 light
# notes: 2+1
# B4: TfR9.1B.41 2+1 anti-TfR bispecific antibody (bispecific antibody, human IgG1, kappa)
# heavy 1: EVRLLESGGGLVQPGGSLRLSCAASGFTFSNYAMGWVRQAPGKGLEWVSAISGSGGSTYYADSVKGRFTTSRDDSKNALYLQMNSLRAEDTAVYYCARGGPGWYAADVWGQGTTVTVSSASTKGPSVFPLAPSSKSTSGGTAALGCLVKDYFPEPVTVSWNSGALTSGVHTFPAVLQSSGLYSLSSVVTVPSSSLGTQTYICNVNHKPSNTKVDKKV[here human IgG1 Fc with changes without letters]GGGGSGGGGSGGGGSQVQLVQSGAEVKKPGASVKVSCKASGYTFTEYAMHWVRQAPGQGLEWMGGINPNDGGTHYNQKFKGRVTMTVDTSTSTAYMELSSLRSEDTAVYYCASQRWLLRGGDYWGQGTLVTVSSGGSEGKSSGSGSESKSTGGSDVVMTQSPLSLPVTLGQPASISCKSSQSLLDSDGKTYLNWLQQRPGQSPRRLIYLVSKLDSGVPDRFSGSGSGTDFTLKISRVEAEDVGVYYCWQGTHFPQTFGGGTKVEIK
# heavy 2: EVRLLESGGGLVQPGGSLRLSCAASGFTFSNYAMGWVRQAPGKGLEWVSAISGSGGSTYYADSVKGRFTTSRDDSKNALYLQMNSLRAEDTAVYYCARGGPGWYAADVWGQGTTVTVSS[here human IgG1 constant region with changes without letters]
# light: B1 light
# notes: 2+1
# B5: TfR9.1B.43 2+1 anti-TfR bispecific antibody (bispecific antibody, human IgG1, kappa)
# heavy 1: EVRLLESGGGLVQPGGSLRLSCAASGFTFSNYAMGWVRQAPGKGLEWVSAISGSGGSTYYADSVKGRFTTSRDDSKNALYLQMNSLRAEDTAVYYCARGGPGWYAADVWGQGTTVTVSSASTKGPSVFPLAPSSKSTSGGTAALGCLVKDYFPEPVTVSWNSGALTSGVHTFPAVLQSSGLYSLSSVVTVPSSSLGTQTYICNVNHKPSNTKVDKKV[here human IgG1 Fc with changes without letters]GGGGSGGGGSGGGGSQVQLVQSGAEVKKPGASVKVSCKASGYTFTEYAMHWVRQAPGQGLEWMGGINPNDGGTSYLQKFKGRVTMTVDTSTSTAYMELSSLRSEDTAVYYCASQRWLLRGGDYWGQGTLVTVSSGGSEGKSSGSGSESKSTGGSDVVMTQSPLSLPVTLGQPASISCKSSQSLLDSDGKTYLNWLQQRPGQSPRRLIYLVSKLDSGVPDRFSGSGSGTDFTLKISRVEAEDVGVYYCWQGTHFPQTFGGGTKVEIK
# heavy 2: EVRLLESGGGLVQPGGSLRLSCAASGFTFSNYAMGWVRQAPGKGLEWVSAISGSGGSTYYADSVKGRFTTSRDDSKNALYLQMNSLRAEDTAVYYCARGGPGWYAADVWGQGTTVTVSS[here human IgG1 constant region with changes without letters]
# light: B1 light
# notes: 2+1
# B6: TfR9.1B.45 2+1 anti-TfR bispecific antibody (bispecific antibody, human IgG1, kappa)
# heavy 1: EVRLLESGGGLVQPGGSLRLSCAASGFTFSNYAMGWVRQAPGKGLEWVSAISGSGGSTYYADSVKGRFTTSRDDSKNALYLQMNSLRAEDTAVYYCARGGPGWYAADVWGQGTTVTVSSASTKGPSVFPLAPSSKSTSGGTAALGCLVKDYFPEPVTVSWNSGALTSGVHTFPAVLQSSGLYSLSSVVTVPSSSLGTQTYICNVNHKPSNTKVDKKV[here human IgG1 Fc with changes without letters]GGGGSGGGGSGGGGSQVQLVQSGAEVKKPGASVKVSCKASGYTFTEYAMHWVRQAPGQGLEWMGGINPNDGGTSYNQKFKGRVTMTVDTSTSTAYMELSSLRSEDTAVYYCASQGWLQRGGDYWGQGTLVTVSSGGSEGKSSGSGSESKSTGGSDVVMTQSPLSLPVTLGQPASISCKSSVSLLDSDGKTYLNWLQQRPGQSPRRLIYLVSKLDSGVPDRFSGSGSGTDFTLKISRVEAEDVGVYYCWQGTHFPQTFGGGTKVEIK
# heavy 2: EVRLLESGGGLVQPGGSLRLSCAASGFTFSNYAMGWVRQAPGKGLEWVSAISGSGGSTYYADSVKGRFTTSRDDSKNALYLQMNSLRAEDTAVYYCARGGPGWYAADVWGQGTTVTVSS[here human IgG1 constant region with changes without letters]
# light: B1 light
# notes: 2+1
# Target: T1, Cyno TfR ECD Avi-His (cynomolgus macaque, UniProt Q5RDH6 89-760 (Pongo abelii entry), biotin on the Avi tag (BirA) where captured on streptavidin)
# T1 construct: also called Cyno TfR Avi-His; cyno TfR Avi-His
# T1 chain: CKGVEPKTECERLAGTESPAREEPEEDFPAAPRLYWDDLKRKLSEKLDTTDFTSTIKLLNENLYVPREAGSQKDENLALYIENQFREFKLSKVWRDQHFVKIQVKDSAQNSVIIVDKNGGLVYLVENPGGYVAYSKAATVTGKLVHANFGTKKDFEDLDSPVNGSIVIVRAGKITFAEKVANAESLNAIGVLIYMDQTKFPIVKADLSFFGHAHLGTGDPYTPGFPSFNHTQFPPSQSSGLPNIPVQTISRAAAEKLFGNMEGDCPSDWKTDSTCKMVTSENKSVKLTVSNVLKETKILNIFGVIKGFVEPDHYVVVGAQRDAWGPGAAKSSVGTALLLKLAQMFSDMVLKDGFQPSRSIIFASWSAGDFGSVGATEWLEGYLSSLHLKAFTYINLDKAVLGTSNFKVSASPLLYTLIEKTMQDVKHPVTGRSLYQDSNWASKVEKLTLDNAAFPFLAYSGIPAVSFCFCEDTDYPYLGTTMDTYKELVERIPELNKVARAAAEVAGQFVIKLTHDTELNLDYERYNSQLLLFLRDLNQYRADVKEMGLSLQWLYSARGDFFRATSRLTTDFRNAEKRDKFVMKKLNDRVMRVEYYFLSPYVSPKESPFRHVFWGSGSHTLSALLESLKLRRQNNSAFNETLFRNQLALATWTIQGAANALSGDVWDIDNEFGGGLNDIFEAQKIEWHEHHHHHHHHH
# Assay: SPR (Carterra LSA), 2+1 immobilised
# Description: The remaining unconjugated active groups on the chip were then blocked by injecting 1M Ethanolamine pH 8.5 (Carterra) for 7 minutes using the single channel flow cell.
# Estimates of affinity were generated by injecting each analyte over the entire antibody array using the single channel flow cell. […] Data were processed and analyzed using NextGenKIT high-throughput kinetics analysis software (Carterra).
row,Binder,binding result
1,B1,binds
2,B2,binds
3,B3,binds
4,B4,binds
5,B5,binds
6,B6,binds
